Experimental data reported in PubChem BioAssay AID504845 (National Center for Advancing Translational Sciences (NCATS), 2011).
Out of some 390,000 compounds screened, about 150 (0.038%) were called active. The inconclusive results got no clear call from the source; some entries with a clear call stand among them for comparison. The call rests on the fitted dose curve; in most records, active means well fitted inhibition curve with a large enough effect; inconclusive means small, poorly fitted or top-dose-only effect; inactive means no such curve, though single readings can be large or run the other way. A potency beside an inconclusive call is a rough fit, not a confirmed value.

biological target: Regulator of G-protein signaling 4 (Homo sapiens) (UniProt P49798); assay: Inhibitors of Regulator of G Protein Signaling (RGS) 4: qHTS; conditions: Transcreener GDP fluorescence polarization, RGS4-accelerated GTP hydrolysis; series mostly up to 114 µM; activity change, negative = inhibition: at the top concentration; further: nearly all actives have a fitted effect of over 75% in size
Chain of UniProt P49798 (P49798 whole entry, looked up): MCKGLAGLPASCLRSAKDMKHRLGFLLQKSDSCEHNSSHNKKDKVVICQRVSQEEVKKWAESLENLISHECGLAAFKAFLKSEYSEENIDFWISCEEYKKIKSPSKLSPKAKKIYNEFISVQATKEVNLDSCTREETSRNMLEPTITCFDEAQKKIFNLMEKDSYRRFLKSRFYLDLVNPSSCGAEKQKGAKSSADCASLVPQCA
Outline: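 MLSMR compounds (23 nl, pin-transferred) preincubated 10 min at room temperature with a 500nM (2x) first reagent, then RGS4 at 900nM (2x) plus Transcreener GDP mix added; fluorescence polarization (620/688 nm) read before and after 90 min at 30 °C.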
On the % scale 0 is the no-effect control and ±100 the full control effect; potency means the concentration at half of the fitted maximal effect; tags describe the fitted curve by direction and shape.

Row | SMILES | Potency | activity change, negative = inhibition
1 | O=C(c1cc(-c2ccc(Br)cc2)on1)N1CCc2ccccc2C1 | inconclusive: 50.1 µM [inhibitor, partial curve, poor fit] | –
2 | CC(C)CC(c1nnnn1C1CCCC1)N1CCC(C(N)=O)CC1 (stereo unspecified) | inconclusive: 112 µM [inhibitor, partial curve, poor fit] | –
3 | COc1ccc(-c2ccc3nnc(SCC(=O)Nc4ccc(NC(C)=O)cc4)n3n2)cc1 | inconclusive: 31.6 µM [inhibitor, partial curve, poor fit] | –
4 | CCc1nc2ccccc2c(C(=O)OCC(=O)Nc2cccc(S(=O)(=O)NC3=NCCCCC3)c2)c1C | – | inactive: -34.5%
5 | Cc1n[nH]c(=S)n1/N=C/c1c(O)ccc2ccccc12 | inconclusive: 89.1 µM [inhibitor, single point] | –
6 | CCCc1nc(N2CCOCC2)c(C#N)c2c1CCCC2 | inconclusive: 79.4 µM [inhibitor, single point] | –
7 | O=C(/C=C/c1ccccc1)Nc1sc2c(c1C(=O)O)CCC2 | inconclusive: 100 µM [inhibitor, partial curve, poor fit] | –
8 | Cc1ccc(-c2cc(C(=O)N/N=C/C(Br)=C/c3ccccc3)n[nH]2)o1 | inconclusive: 31.6 µM [inhibitor, full curve, poor fit] | –
9 | Cc1ccc(/C=N/NS(=O)(=O)c2ccccc2)o1 | – | inactive: -30.9%
10 | Cc1ccc2cc3cc(C(=O)NCc4ccco4)oc3nc2c1 | inconclusive: 35.5 µM [inhibitor, partial curve, poor fit] | –
11 | S=C(NNc1ccnc2cc(Cl)ccc12)Nc1ccccc1Cl | inconclusive: 100 µM [inhibitor, partial curve, poor fit] | –
12 | COc1ccc(NC(=O)c2cc(-c3ccc(C)o3)nc3ccccc23)cc1OC | inconclusive: 39.8 µM [inhibitor, partial curve, poor fit] | –
13 | CN(C)c1ccnc(-n2cccc2/C=N/OCc2ccc(F)cc2Cl)c1C#N | inconclusive: 50.1 µM [inhibitor, partial curve, poor fit] | –
14 | O=C(c1ccc(S(=O)(=O)N2CCCCCC2)cc1)N1CCC(CN2C(=O)c3cccc4cccc(c34)C2=O)CC1 | – | inactive: -13.3%
15 | Cc1ccc(S(=O)(=O)NC2c3cccc4cccc(c34)C2Sc2nncn2C)cc1 (stereo unspecified) | – | inactive: -1.51%
16 | C=C(C)C(=O)Nc1cccc(C2=NOC3(C2)C[C@@H](C(N)=O)N(C(=O)/C=C/CC)C3)c1 (stereo partly specified) | inconclusive: 28.2 µM [inhibitor, full curve, poor fit] | –
17 | O=C(Cc1ccccc1)NCCc1csc2nc(-c3ccc(Cl)cc3)nn12 | – | inactive: 16.2%
18 | COc1ccc(OC)c2cc3ccccc3cc12 | inconclusive: 100 µM [inhibitor, partial curve, poor fit] | –
19 | CCOc1ccccc1/C=N/Nc1ccc(Cl)nn1 | – | inactive: 8.59%
20 | CN1CCc2c(sc3c2C(=O)NC(c2cn(Cc4ccccc4)c4ccccc24)N3)C1 (stereo unspecified) | – | inactive: -42.7%
21 | CCOC(=O)c1sc(NC(=O)c2ccncc2)c(C#N)c1C | inconclusive: 50.1 µM [inhibitor, partial curve, poor fit] | –
22 | COC(=O)c1oc2ccccc2c1NC(=O)c1ccccc1O | – | inactive: 4.34%

Row | SMILES | Potency | activity change, negative = inhibition
23 | O=S(=O)(/C=C/C=C/S(=O)(=O)c1ccccc1)c1ccccc1 | inconclusive: 100 µM [inhibitor, partial curve, poor fit] | –
24 | COC(=O)/C(=C\C=C\c1ccccc1)NC(=O)c1ccccc1 | inconclusive: 17.8 µM [inhibitor, full curve, poor fit] | –
25 | COC(=O)NNC(=O)C1CCC(C(=O)NNC(=O)OC)CC1 (stereo unspecified) | inconclusive: 89.1 µM [inhibitor, single point] | –
26 | CC(C)c1nc2sc3c(SCC(=O)NCc4ccco4)ncnc3c2c2c1CCC2 | inconclusive: 39.8 µM [inhibitor, partial curve, poor fit] | –
27 | Cc1cc(/C=C2\C(=N)N3N=CSC3=NC2=O)c(C)n1Cc1ccccc1 | – | inactive: -12.8%
28 | O=C(c1cc(-c2ccco2)on1)N1CCCc2ccccc21 | – | inactive: -5.55%
29 | FC(F)(F)c1cc(-c2ccco2)nc(-n2nc(C(F)(F)F)cc2C2CC2)n1 | – | inactive: -9.64%
30 | Cc1cccc(N=C2NC(=O)/C(=C/C=C/c3ccco3)S2)c1 | – | inactive: -32.7%
31 | COc1ccc(N2C(=O)[C@@H]3[C@H](C2=O)[C@H]2C=CC=NN2[C@@H]3C(=O)Nc2ccc(Cl)cc2)cc1 | inconclusive: 89.1 µM [inhibitor, partial curve, poor fit] | –
32 | O=c1n(Cc2ccc(Cl)cc2)c2sc3c(c2c2ncnn12)CCCC3 | inconclusive: 89.1 µM [inhibitor, single point] | –
33 | COc1cc(/C=C(\C#N)c2nc3ccccc3[nH]2)ccc1OCc1cccc(C(F)(F)F)c1 | inconclusive: 17.8 µM [inhibitor, partial curve, poor fit] | –
34 | Nc1c(C(=O)NCc2ccco2)c2nc3ccccc3nc2n1CCc1ccc(F)cc1 | inconclusive: 89.1 µM [inhibitor, single point] | –
35 | CCOCCCNS(=O)(=O)c1ccc(NC(=O)c2ccc(OC)c([N+](=O)[O-])c2)cc1 | inconclusive: 56.2 µM [inhibitor, partial curve, poor fit] | –
36 | C=CCN1C(c2ccccc2)=CS/C1=C(/C#N)c1nnc(N2CCOCC2)n1-c1ccccc1 | inconclusive: 31.6 µM [inhibitor, full curve, poor fit] | –
37 | COc1ccc(C(=S)N2CCN(c3ccccc3Cl)CC2)cc1OC | inconclusive: 50.1 µM [inhibitor, partial curve, poor fit] | –
38 | CN(CC(=O)Nc1ccccc1Cl)C(=O)COC(=O)/C=C/c1ccc(C(F)(F)F)cc1 | inconclusive: 89.1 µM [inhibitor, single point] | –
39 | C=CC(=O)N1C/C(=C/c2ccccc2)C(=O)/C(=C\c2ccccc2)C1 | inconclusive: 89.1 µM [inhibitor, partial curve, poor fit] | –
40 | Cc1ccc(C)c(Cn2c(=O)n(C(C)C)c(=O)c3oc4ccccc4c32)c1 | – | inactive: -3.15%
41 | COc1ccccc1OCC(=O)NCCSCc1ccccc1Cl | inconclusive: 56.2 µM [inhibitor, partial curve, poor fit] | –
42 | N#CCc1ccc(OC(=O)c2ccncc2)cc1 | – | inactive: 20.4%
43 | O=c1cc(O)c2sc(Nc3ccc(Cl)c(F)c3)nc2[nH]1 | inconclusive: 50.1 µM [inhibitor, partial curve, poor fit] | –
44 | COc1ccc(C(=O)NCC2(c3ccccc3)CCCC2)c(OC)c1 | – | inactive: -0.174%

Row | SMILES | Potency | activity change, negative = inhibition
45 | COc1ccccc1C(=O)NNC(=O)c1cccc(C)c1 | inconclusive: 31.6 µM [inhibitor, full curve, poor fit] | –
46 | COC(=O)c1ccc(C2c3c(oc4ccccc4c3=O)C(=O)N2CCCN2CCOCC2)cc1 (stereo unspecified) | inconclusive: 50.1 µM [inhibitor, partial curve, poor fit] | –
47 | COc1cc2c(cc1NC(=O)c1cccc(Br)c1)CCCC2 | – | inactive: -12.2%
48 | CCOc1cccc2c1N[C@@H](c1ccc(C(=O)O)cc1)[C@H]1CC=C[C@@H]21 | inconclusive: 31.6 µM [inhibitor, partial curve, poor fit] | –
49 | CCCOCCOC(=O)C1=C(C)NC(=O)NC1c1cc(Cl)c(O)c(OC)c1 (stereo unspecified) | – | inactive: 11.3%
50 | CC1CCCC(C)N1C(=O)COC(=O)/C=C/c1ccc(Br)o1 (stereo unspecified) | inconclusive: 50.1 µM [inhibitor, partial curve, poor fit] | –
51 | C/C(=C\c1ccccc1)C(=O)Nc1ccc(S(=O)(=O)Nc2ncccn2)cc1 | inconclusive: 100 µM [inhibitor, single point] | –
52 | COc1cc(OC)cc(C(=O)Nc2ccc([N+](=O)[O-])cn2)c1 | inconclusive: 44.7 µM [inhibitor, partial curve, poor fit] | –
53 | CC(CCc1ccccc1)NC(=O)Cc1ccc([N+](=O)[O-])cc1 (stereo unspecified) | inconclusive: 100 µM [inhibitor, single point] | –
54 | CC(C)(C)NC(=O)Nc1ccc(Cn2cc(C(F)(F)F)ccc2=O)cc1 | inconclusive: 17.8 µM [inhibitor, full curve, poor fit] | –
55 | O=C(COCc1ccccc1)N[C@@H](Cc1ccc(O)cc1)C(=O)O | inconclusive: 89.1 µM [inhibitor, single point] | –
56 | Cc1ccccc1C(=O)NNC(=O)c1ccncc1 | – | inactive: 7.41%
57 | Cc1cccc(Cn2cccc2CNS(=O)(=O)c2ccccc2F)c1 | – | inactive: -19.3%
58 | CCCCCCSc1ccc([C@H]2N[C@@](CC(C)C)(C(=O)OC)[C@H]3C(=O)N(C)C(=O)[C@@H]23)cc1OC | inconclusive: 70.8 µM [inhibitor, single point] | –
59 | Fc1ccc2nc(Nc3nc4cc5c(cc4s3)OCO5)sc2c1 | – | inactive: -5.62%
60 | NC(=S)N/N=C/c1ncc(C(F)(F)F)cc1Cl | inconclusive: 79.4 µM [inhibitor, single point] | –
61 | CCc1ccc(C(C)NC(=O)c2cc(C)oc2C)cc1 (stereo unspecified) | inconclusive: 79.4 µM [inhibitor, partial curve, poor fit] | –
62 | COC1CCCN(Cc2cn(C)nc2-c2ccc(Oc3ccccc3)cc2)C1 (stereo unspecified) | – | inactive: 4.57%
63 | CC(=O)/C(=N\Nc1ccccc1)Sc1cccc2cccnc12 | – | inactive: 10.3%
64 | C(=Nc1cccc2c(N=Cc3ccco3)cccc12)c1ccco1 | inconclusive: 100 µM [inhibitor, partial curve, poor fit] | –
65 | Cc1cc(C(=O)NP(=O)(N2CCOCC2)N2CCOCC2)c(C)n1-c1ccc(N(C)C)cc1 | inconclusive: 89.1 µM [inhibitor, single point] | –
66 | COc1ccc(COC[C@H](C)[C@H](O[Si](C)(C)C)[C@@H](C)[C@H]2OC(=O)[C@H]2C)cc1 | – | inactive: 21.1%
